According to the antibiotic and cytotoxicity screens of Wong et al. (2023):
This is one part of the list.

Key:
HSkMC = human skeletal muscle cells; assay: cytotoxicity call (relative viability < 0.9); conditions: 10 µM
HepG2 = assay: cytotoxicity call (relative viability < 0.9); conditions: 10 µM
S. aureus RN4220 = assay: growth inhibition call (relative growth <= 0.2); conditions: 50 µM

| SMILES | cytotoxicity call (HSkMC) | cytotoxicity call (HepG2) | growth inhibition call (S. aureus RN4220) |
| --- | --- | --- | --- |
| CC1=CC(=O)c2ccccc2C1=O | inactive | active | active |
| COc1cccc(S(=O)(=O)N(C)C[C@@H]2Oc3ncc(C#CC(C)(C)O)cc3C(=O)N([C@H](C)CO)C[C@@H]2C)c1 | inactive | inactive | inactive |
| CC(C)(CN)CN1CCCCCC1 | inactive | inactive | inactive |
| CC(C)CC#Cc1ccc2c(c1)O[C@@H](CN(C)S(=O)(=O)c1ccc(F)cc1)[C@@H](C)CN([C@@H](C)CO)S2(=O)=O | inactive | inactive | inactive |
| COc1ccc(C#Cc2ccc3c(c2)O[C@@H](CN(C)S(=O)(=O)c2ccccc2F)[C@@H](C)CN([C@@H](C)CO)S3(=O)=O)cc1 | inactive | inactive | inactive |
| C=CCON1C(=O)[C@@H]2[C@@H](C1=O)[C@@H]1C=C[C@@H]2O1 | inactive | inactive | inactive |
| O=C(C[n+]1ccc(/C=N/O)cc1)N1CCCCC1 | inactive | inactive | inactive |
| C[C@@H]1CCCCO[C@@H](CN(C)C(=O)Nc2ccc(C(F)(F)F)cc2)[C@H](C)CN([C@H](C)CO)C(=O)c2cc(NC(=O)c3ccccc3)ccc2O1 | inactive | inactive | inactive |
| C[C@@H]1CCCCO[C@@H](CN(C)S(=O)(=O)c2ccc(F)cc2)[C@H](C)CN([C@@H](C)CO)C(=O)c2cc(NC(=O)CCC(F)(F)F)ccc2O1 | inactive | inactive | inactive |
| C[C@@H]1CN([C@H](C)CO)C(=O)c2cccc(NC(=O)NC3CCCCC3)c2O[C@@H]1CN(C)Cc1ccc(Cl)c(Cl)c1 | inactive | inactive | inactive |
| CC12CC3CC(C)(C1)CC(N)(C3)C2.Cl | inactive | active | inactive |
| Cc1noc(C)c1NC(=O)Nc1ccc2c(c1)C(=O)N([C@@H](C)CO)C[C@@H](C)[C@H](CN(C)C(=O)Nc1cccc3ccccc13)O2 | inactive | inactive | inactive |
| C[C@H]1CN([C@@H](C)CO)C(=O)c2cc(NC(=O)Nc3ccc(C(F)(F)F)cc3)ccc2O[C@H]1CN(C)Cc1ccc(C(=O)O)cc1 | inactive | inactive | inactive |
| C[C@@H]1O[C@@H](O[C@@H]2[C@@H](O)[C@@H](O[C@@H]3O[C@@H](CO)[C@H](O)[C@H]3O)[C@H](OC(=O)[C@]34CCC(C)(C)C[C@H]3C3=CC[C@H]5[C@@]6(C)C[C@H](O)[C@H](O[C@@H]7O[C@@H](C)[C@H](O)[C@@H](O[C@@H]8OC[C@@H](O)[C@H](O)[C@H]8O[C@@H]8O[C@H](CO)[C@@H](O)[C@H](O)[C@H]8O)[C@H]7O)[C@@](C)(CO)[C@@H]6CC[C@@]5(C)[C@]3(C)C[C@H]4O)O[C@H]2C)[C@H](O)[C@H](O)[C@H]1O | inactive | active | inactive |
| C[C@@H]1CCCCO[C@H](CN(C)Cc2ccc(C(=O)O)cc2)[C@@H](C)CN([C@H](C)CO)C(=O)c2cc(NS(=O)(=O)c3cccs3)ccc2O1 | inactive | inactive | inactive |
| Cc1ccc(OCCn2c(CC(C)(C)C)nc3ccccc32)cc1 | inactive | inactive | inactive |
| C[C@H]1CCCCO[C@@H](CN(C)C(=O)Nc2ccc3c(c2)OCO3)[C@@H](C)CN([C@@H](C)CO)C(=O)c2cc(NS(=O)(=O)c3ccccc3)ccc2O1 | inactive | inactive | inactive |
| C[C@H]1CCCCO[C@@H](CN(C)C(=O)Nc2ccc(F)cc2)[C@@H](C)CN([C@@H](C)CO)C(=O)c2cc(NS(=O)(=O)c3cccs3)ccc2O1 | inactive | inactive | inactive |
| COCC#Cc1ccc2c(c1)O[C@H](CN(C)S(C)(=O)=O)[C@@H](C)CN([C@@H](C)CO)S2(=O)=O | inactive | inactive | inactive |
| C[C@@H]1CN([C@@H](C)CO)C(=O)c2cc(NC(=O)Cc3ccccc3)ccc2O[C@@H](C)CCCCO[C@H]1CN(C)Cc1ccc(C(=O)O)cc1 | inactive | inactive | inactive |
| C[C@@H]1CN([C@@H](C)CO)C(=O)c2cccc(NC(=O)C3CC3)c2O[C@H]1CN(C)S(=O)(=O)c1ccc(F)cc1 | inactive | inactive | inactive |
| C[C@H]1CN([C@@H](C)CO)S(=O)(=O)c2ccc(C#CC(C)(C)O)cc2O[C@@H]1CN(C)C(=O)CN(C)C | inactive | inactive | inactive |
| C[C@H]1CN([C@@H](C)CO)C(=O)CCCn2nncc2CO[C@H]1CN(C)C(=O)Nc1cccc2ccccc12 | inactive | inactive | inactive |
| O=C(Nc1cccc2cccnc12)[C@@H]1[C@H](c2ccc(Br)cc2)CC(=O)N1c1ccc(C(F)(F)F)cc1 | inactive | inactive | inactive |
